The whole screen tested about 360,000 compounds, of which about 25,000 (6.9%) were called active. The shares of active, inactive and inconclusive entries below differ from those in the screen. Calls follow the shape of the dose curve; as a rule, active = well fitted inhibition curve with a large enough effect; inconclusive = small, poorly fitted or top-dose-only effect; inactive = flat fitted curve, though single readings scatter. A potency beside an inconclusive call is a rough fit, not a confirmed value.
Target: Luciferin 4-monooxygenase (Photinus pyralis) (UniProt P08659)
Chain of UniProt P08659 (P08659 whole entry, looked up): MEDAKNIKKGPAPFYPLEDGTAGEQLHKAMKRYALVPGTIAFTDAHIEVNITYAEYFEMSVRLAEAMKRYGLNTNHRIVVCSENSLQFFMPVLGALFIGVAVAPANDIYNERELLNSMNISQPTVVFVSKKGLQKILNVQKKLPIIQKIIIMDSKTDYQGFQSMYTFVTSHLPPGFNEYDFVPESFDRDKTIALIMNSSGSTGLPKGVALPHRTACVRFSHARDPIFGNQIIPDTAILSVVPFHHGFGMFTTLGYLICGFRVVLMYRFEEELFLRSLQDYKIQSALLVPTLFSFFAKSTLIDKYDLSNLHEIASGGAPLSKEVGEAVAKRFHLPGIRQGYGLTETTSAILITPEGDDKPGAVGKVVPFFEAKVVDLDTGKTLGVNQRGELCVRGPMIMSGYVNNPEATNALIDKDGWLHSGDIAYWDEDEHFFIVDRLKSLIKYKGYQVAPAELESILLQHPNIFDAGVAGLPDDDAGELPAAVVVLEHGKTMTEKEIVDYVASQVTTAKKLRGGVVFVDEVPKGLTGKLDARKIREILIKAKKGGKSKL
Experiment: qHTS profiling assay for firefly luciferase inhibitor/activator using purifed enzyme and Km concentrations of substrates (counterscreen for miR-21 project); also: nearly all actives have a fitted effect of over 55% in size
Details: purified FLuc, luminescence inhibition; series mostly up to 57.5 µM
Outline: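 Biochemical qHTS of compounds, final roughly 60 µM downward over six points, against 10 nM purified firefly luciferase using Km concentrations of substrates (10 uM D-luciferin, 10 uM ATP) in Tris acetate pH 7.5 buffer; luminescence output.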
Potency is read from the fitted curve at half-maximal effect; tags tell the direction and shape of the fitted curve.

| Structure (SMILES) | Potency |
| --- | --- |
| CCOC(=O)C1(Cc2ccc(OC)cc2)CCN(C(=O)CN2CCOC2=O)CC1 | inconclusive: 26.9 µM [inhibitor, partial curve, poor fit] |
| O=[N+]([O-])c1ccc(N/N=C/c2c[nH]c3ccccc23)c(S(=O)(=O)Nc2ccc(Cl)cc2)c1 | inconclusive: 37.9 µM [inhibitor, single point] |
| Cc1ccc(/C=C/c2nc3ccccc3[nH]2)cc1 | active: 0.0757 µM |
| N#CCn1cc(/C=N/NC(=O)c2cc3c(ccc4ccccc43)o2)c2ccccc21 | inconclusive: 6.01 µM [inhibitor, partial curve] |
| COc1cccc(NC(=O)CC(=O)c2ccc([N+](=O)[O-])cc2)c1 | active: 2.13 µM |
| O=C(NC1CCS(=O)(=O)C1)c1ccc(-c2ccc(Br)cc2)o1 (stereo unspecified) | inconclusive: 37.9 µM [inhibitor, single point] |
| COc1ccc(-c2ccccc2)cc1NC(=O)c1cccs1 | inconclusive: 30.1 µM [inhibitor, partial curve, poor fit] |
| O=C(O)c1cc(-c2ccc3ccccc3c2)nc2ccc(F)cc12 | active: 2.69 µM |
| N#C/C(=C\c1coc2ccc(O)cc2c1=O)C(=O)Nc1nc2ccccc2s1 | inconclusive: 26.9 µM [inhibitor, partial curve] |
| O=C1CCCC/C1=C\Nc1ccc(C(=O)O)c(O)c1 | active: 10.7 µM |
| Cc1cccn2cc(CSc3nnc(Nc4ccc(C(C)C)cc4)s3)nc12 | inconclusive: 23.9 µM [inhibitor, single point] |
| O=C(Cn1c(-c2cccs2)cc2ccccc21)NCCc1ccc(Cl)cc1 | inactive |
| Cc1cnc(C(=O)OCc2csc(CC(=O)Nc3ccccc3C)n2)cn1 | inactive |
| Cc1ccc(NC(=O)Nc2nnc(-c3ccccc3F)s2)cc1 | inactive |
| CC(Oc1ccc(Br)cc1Cl)C(=O)Nc1ccncc1 (stereo unspecified) | inactive |
| CCOc1ccc(C(=O)Nc2cccc(C(=O)O)c2)cc1Cl | active: 0.239 µM |
| COc1ccccc1OCCn1c(=O)sc2ccccc21 | inconclusive: 19 µM [inhibitor, partial curve, poor fit] |
| O=C(c1ccc(CSc2nc3ccncc3n2Cc2cccc(F)c2)cc1)N1CCCCCC1 | inconclusive: 21.3 µM [inhibitor, partial curve] |
| Cc1ccc(Cn2c(=O)n(CCCC(=O)NCc3ccccc3Cl)c(=O)c3ccccc32)cc1 | inactive |
| O=C(O)c1ccc(N=Cc2c(O)ccc3ccccc23)cc1 | active: 30.1 µM |
| COc1cccc(COC(=O)C2CCN(S(=O)(=O)c3ccc(C)cc3C)CC2)c1OC | inactive |
| CCc1ccc(OCC(=O)Nc2ccc3c(c2)COC3=O)cc1 | inconclusive: 37.9 µM [inhibitor, partial curve, poor fit] |
| Cc1cccc(NC(=O)CCS(=O)(=O)c2ccccc2)c1 | inconclusive: 26.9 µM [inhibitor, single point] |
| O=C(O)c1cncc(C#CCC2CCCCC2)c1 | inconclusive: 23.9 µM [inhibitor, single point] |

| Structure (SMILES) | Potency |
| --- | --- |
| O=C(Cc1ccccc1)Nc1cccc(-c2cn3cccnc3n2)c1 | inconclusive: 21.3 µM [inhibitor, single point] |
| CC(C)(C)c1cc(NC(=O)Nc2ccc(Cl)cc2Cl)no1 | inconclusive: 37.9 µM [inhibitor, single point] |
| CCC1(C)OC(=O)NN(c2ccc(C)cc2)C1(C)O (stereo unspecified) | inactive |
| COc1ccc(OC)c(-n2cnc3cc(C(=O)NC4CCCCCC4)ccc32)c1 | inconclusive: 19 µM [inhibitor, partial curve] |
| Cc1ccc(OCCNC(=O)c2ccco2)cc1C | inconclusive: 16.9 µM [inhibitor, partial curve] |
| NC(=O)N/N=C/c1ccccc1OC(=O)c1cc2ccccc2oc1=O | inconclusive: 30.1 µM [inhibitor, single point] |
| COC(=O)Cc1[nH]n(-c2nc3ccccc3s2)c(=O)c1C(C)=Nc1ccc(OC)cc1 | inconclusive: 21.3 µM [inhibitor, partial curve, poor fit] |
| Cc1ccc(Oc2ccc(NC(=O)CSc3n[nH]c(N)n3)cc2)cc1 | inconclusive: 33.8 µM [inhibitor, partial curve, poor fit] |
| COc1ccccc1NC(=O)c1cnc(SCC(=O)N2CCCc3ccccc32)n(C)c1=O | active: 1.69 µM |
| COc1cc2[nH]c(C(=O)N3CCc4ccccc43)cc2c(OC)c1OC | active: 16.9 µM |
| Cc1ccc(C(=O)NCC(=O)OC(C)C(=O)NC2CCCCC2C)cc1C (stereo unspecified) | inconclusive: 37.9 µM [inhibitor, partial curve, poor fit] |
| O=c1c(-c2ccc(F)cc2)coc2c3c(ccc12)OCCO3 | inconclusive: 1.2 µM [inhibitor, partial curve, poor fit] |
| CCCc1cc(C(=O)NNC(=S)NCC)c2ccccc2n1 | inconclusive: 13.5 µM [inhibitor, partial curve] |
| Cc1ccccc1CCNC(=O)c1ccc2c(c1)c(C)c(C)n2Cc1ccccc1 | inactive |
| Cc1nn(-c2ccccn2)c2c1C(=O)C(Br)CC2 (stereo unspecified) | inconclusive: 13.5 µM [inhibitor, partial curve, poor fit] |
| COc1ccc(S(=O)(=O)n2ccnc2)cc1C(C)(C)C | inconclusive: 15.1 µM [inhibitor, partial curve, poor fit] |
| CCc1ccccc1N1C(=O)N(Cc2ccccc2C)c2ccccc2S1(=O)=O | inactive |
| CCOC(=O)C1CCN(C(=O)C2CCN(c3nc4ccc(OC)cc4s3)CC2)CC1 | active: 15.1 µM |
| O=C(C1=NN[C@@H]2C(=O)N(c3cccc(C(F)(F)F)c3)C(=O)[C@H]12)c1ccc2ccccc2n1 | inconclusive: 23.9 µM [inhibitor, single point] |
| COc1ccc(OC)c2sc(N3CCN(C(=O)C4CC4)CC3)nc12 | inconclusive: 26.9 µM [inhibitor, partial curve, poor fit] |
| NC(=O)c1ccsc1NC(=O)COC(=O)C1CC2CCCC(C1)C2=O (stereo unspecified) | inconclusive: 19 µM [inhibitor, single point] |
| Cc1ccc(S(=O)(=O)Nc2cccc(-c3cn4cccc(C)c4n3)c2)cc1 | inconclusive: 19 µM [inhibitor, partial curve] |
| COc1cccc(C(=O)Nc2ccc(S(=O)(=O)Nc3onc(C)c3C)cc2)c1 | inconclusive: 16.9 µM [inhibitor, partial curve] |
| CN(Cc1cccnc1)C(=O)c1cc(COc2ccc3ncccc3c2)on1 | inactive |

| Structure (SMILES) | Potency |
| --- | --- |
| CCc1ccc(C2CC(=O)Nc3cc4c(cc32)OCO4)cc1 (stereo unspecified) | inactive |
| COc1ccc(-c2nc(CN(CC3CCC(=O)N3)C(C)C)c(C)o2)c(C)c1C (stereo unspecified) | inconclusive: 33.8 µM [inhibitor, partial curve, poor fit] |
| CC(=O)c1ccc(-c2cccs2)s1 | inconclusive: 26.9 µM [inhibitor, single point] |
| CCS(=O)CCSc1nc2ccccc2s1 (stereo unspecified) | inconclusive: 23.9 µM [inhibitor, partial curve] |
| Cc1ccnc(SCc2cc(=O)c(OC(=O)c3ccccc3)co2)n1 | inconclusive: 19 µM [inhibitor, single point] |
| O=C(O)Cc1ccc(N=Cc2c(O)ccc3ccccc23)cc1 | inconclusive: 21.3 µM [inhibitor, single point] |
| CC(C)C(=O)Nc1ccc(N2CCN(c3ccc(F)cc3)CC2)cc1 | inactive |
| Cc1ccc(NC(=O)Cn2cc3c(n2)CCCCC3)cc1 | inactive |
| COc1cc(Br)cc(/C=C/c2ccc3cccc(O)c3n2)c1OC | inconclusive: 26.9 µM [inhibitor, single point] |
| CCOC(=O)c1c(C)[nH]c(N=Nc2cc(C(=O)O)cc(C(=O)O)c2)c1C | active: 16.9 µM |
| CCC(=O)Nc1cccc(NC(=S)NC(=O)c2cccc(C)c2)c1 | inconclusive: 9.53 µM [inhibitor, partial curve, poor fit] |
| Cc1ccc2c(c1)-c1nc(-c3ccc4c(c3)NC(=O)CO4)cc(-c3ccc(Cl)cc3)c1CO2 | inactive |
| COc1ccc(N2CCN(C(=O)c3ccc(NS(=O)(=O)c4cccc(F)c4)cc3)CC2)cc1 | inconclusive: 37.9 µM [inhibitor, partial curve, poor fit] |
| O=C(COC(=O)Cc1ccc(Cl)cc1Cl)Nc1ccc(OC(F)F)cc1 | inconclusive: 37.9 µM [inhibitor, single point] |
| COc1ccc(OC)c(/C=N\NC(=O)c2cc3c(ccc4ccccc43)o2)c1 | inactive |
| Oc1ccc(N=Cc2ccc(O)c(O)c2)cc1 | inconclusive: 16.9 µM [inhibitor, partial curve, poor fit] |
| O=C(Nc1ccccn1)c1csc2c1CCCC2 | active: 6.75 µM |
| Cc1ccc2nc(N3CCN(C(=O)C4CC4)CC3)sc2c1 | inconclusive: 13.5 µM [inhibitor, partial curve] |
| CC(C)(C)C(=O)Nc1ccc(-c2cc3cc(Cl)ccc3o2)cc1 | active: 0.19 µM |
| Cc1ccc(NS(=O)(=O)c2ccc3nc(-c4ccccc4)[nH]c3c2)c(Cl)c1 | inconclusive: 19 µM [inhibitor, partial curve, poor fit] |
| COc1cccc(CNC(=O)c2cc3c(s2)-c2c(C)cccc2OC3)c1 | inactive |
| Cc1ccc(-n2cc(-c3ccccc3)[nH]c2=O)cc1F | inconclusive: 12 µM [inhibitor, partial curve] |
| Cc1ccc(CCNC(=O)NC(C)(C)C)cc1 | inconclusive: 26.9 µM [inhibitor, partial curve, poor fit] |

Reference: PubChem BioAssay AID588342 (National Center for Advancing Translational Sciences (NCATS), 2011)
